Measured values as given in publication PMC4336329 (PLoS ONE, 2015).
The campaign covered roughly 310,000 compounds. About 14,000 (4.5%) showed an effect of 50% or more. The effect is printed as a negative number. Some of the results follow.

Biological target: human ether-à-go-go-related gene (hERG) potassium channel (human, UniProt Q12809)
Assay: primary screen, population patch clamp on CHO cells stably expressing hERG
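Further: peak tail current of the secondary pulse compared with the same well before compound.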

Chain of human ether-à-go-go-related gene (hERG) potassium channel (Q12809 whole entry, looked up): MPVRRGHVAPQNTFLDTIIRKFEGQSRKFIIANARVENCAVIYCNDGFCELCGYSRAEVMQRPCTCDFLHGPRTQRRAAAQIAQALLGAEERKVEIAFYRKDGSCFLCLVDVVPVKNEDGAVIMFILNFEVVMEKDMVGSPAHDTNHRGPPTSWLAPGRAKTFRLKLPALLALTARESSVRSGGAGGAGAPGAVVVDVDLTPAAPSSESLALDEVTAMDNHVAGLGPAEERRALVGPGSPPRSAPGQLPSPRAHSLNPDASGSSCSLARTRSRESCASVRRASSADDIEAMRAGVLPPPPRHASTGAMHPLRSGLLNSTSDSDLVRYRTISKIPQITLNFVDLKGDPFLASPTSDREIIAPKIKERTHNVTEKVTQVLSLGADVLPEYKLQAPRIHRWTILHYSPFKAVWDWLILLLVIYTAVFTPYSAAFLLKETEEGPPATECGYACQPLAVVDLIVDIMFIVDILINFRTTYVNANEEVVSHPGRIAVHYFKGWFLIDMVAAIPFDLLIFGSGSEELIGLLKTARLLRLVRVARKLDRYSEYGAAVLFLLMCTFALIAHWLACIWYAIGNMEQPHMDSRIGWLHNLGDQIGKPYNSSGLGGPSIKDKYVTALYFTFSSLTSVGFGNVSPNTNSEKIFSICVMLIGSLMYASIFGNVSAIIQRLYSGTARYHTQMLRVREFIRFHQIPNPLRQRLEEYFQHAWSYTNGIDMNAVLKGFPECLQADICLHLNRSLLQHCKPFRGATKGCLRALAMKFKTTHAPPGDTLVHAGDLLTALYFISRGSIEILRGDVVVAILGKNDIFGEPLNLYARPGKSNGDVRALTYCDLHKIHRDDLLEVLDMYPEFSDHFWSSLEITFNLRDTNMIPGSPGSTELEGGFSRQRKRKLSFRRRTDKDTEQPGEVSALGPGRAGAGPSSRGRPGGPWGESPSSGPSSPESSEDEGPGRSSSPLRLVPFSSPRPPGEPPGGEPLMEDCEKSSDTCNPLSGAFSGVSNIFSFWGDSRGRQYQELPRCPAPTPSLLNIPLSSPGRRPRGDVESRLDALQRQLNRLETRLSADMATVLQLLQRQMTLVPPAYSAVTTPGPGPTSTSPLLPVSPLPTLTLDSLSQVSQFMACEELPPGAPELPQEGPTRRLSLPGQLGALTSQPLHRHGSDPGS

Row | Structure (SMILES) | hERG current change (%, negative = inhibition) at 10uM [%]
1 | O=C(CCl)Nc1ccc(N2CCCCCC2)cc1 | 4.41
2 | CCOC(=O)c1cn(CC)c2c(ccc3ccccc32)c1=O | 15.5
3 | O=C(COC(=O)c1ccc2c(c1[N+](=O)[O-])C(=O)c1ccccc1C2=O)NC1CC1 | 14.6
4 | COc1cc(CNCc2ccc(OC)c(OC)c2OC)cc(OC)c1 | -7.28
5 | COc1ccccc1N1CCN(Cc2cc(=O)c(OCC(=O)NC(C)C)co2)CC1 | 13.2
6 | CCCSc1nc2c(c(=O)[nH]c(=O)n2C)n1Cc1ccccc1 | -17.4
7 | Cc1ccc(-c2csc3nc(CSc4nnc(-c5ccc(Cl)cc5)n4C)[nH]c(=O)c23)cc1 | -16.7
8 | COc1ccc(C(CNC(=O)c2cc(=O)[nH]c3ccccc23)N2CCCC2)cc1 (centres unmarked) | 9.16
9 | C#CCSc1nnnn1-c1cccc(Cl)c1 | -9.19
10 | C[C@]12CC[C@@H]3c4ccc(OS(=O)(=O)[O-])cc4CC[C@H]3[C@@H]1CCC2=O.[Na+] | 16.9
11 | O=C(Nc1cccc(Cl)c1)Nc1nccs1 | -2.77
12 | C/C(=N/NC(=O)C1CCN(S(=O)(=O)c2ccc(C)cc2)CC1)c1cccc([N+](=O)[O-])c1 | 8.25
13 | N=c1c(S(=O)(=O)c2ccc(Cl)cc2)cc2c(=O)n3ccccc3nc2n1C1CCCC1 | 14
14 | O=C(O)c1ccc(N2C(=O)/C(=C\c3ccccc3)N=C2c2ccccc2)cc1 | 1.57
15 | Cc1ccccc1N1CC(=O)N(c2ccccc2C)CC1=O | -4.18
16 | O=S(=O)(c1ccccc1)N1CCN=C1SCc1ccc(Cl)cc1 | -2.02
17 | COCCN1CCN(C(=O)c2cc(COc3ccc(Cl)cc3OC)on2)CC1 | 19
18 | CCOC(=O)N1CCC(NC(=O)C2=C(C)C(=O)OC23CCC(C)CC3)CC1 (centres unmarked) | -7.09
19 | CCOc1ccc(S(=O)(=O)NCc2cccnc2)cc1C | 6.51
20 | CCCc1c(C(=O)N/N=C/c2c(OC)ccc3ccccc23)nnn1-c1nonc1N | 14.4
21 | CC(=O)c1cccc(NC(=O)C2=CN3CCS(=O)(=O)N=C3C=C2)c1 | 10.8
22 | Cc1c(S(=O)(=O)N2CCN(c3cccc(Cl)c3)CC2)c(=O)n(C)c(=O)n1C | 2.47

Row | Structure (SMILES) | hERG current change (%, negative = inhibition) at 10uM [%]
23 | O=C(Nc1nnc(SCc2cccc(F)c2)s1)c1ccco1 | 2.16
24 | Cc1cc(C)c(C(=O)NC2CC(C)(C)Cc3c2cnn3-c2ccccc2)o1 (centres unmarked) | -31.4
25 | CC(NS(C)(=O)=O)c1nnc2n1-c1ccc(Br)cc1C(c1ccccc1Cl)=NC2 (centres unmarked) | -12.2
26 | CCN(C(=S)NCc1ccccc1)c1ccccc1 | -21.2
27 | O=C(CN1CCCc2ccccc21)N1CCc2ccccc21 | 8.15
28 | N#Cc1cccc(NC(=O)NCCc2c[nH]c3ccccc23)c1 | -13.8
29 | COc1ccccc1OC(=O)C1CC(=O)N(c2ccc(Cl)cc2)C1 (centres unmarked) | -17.7
30 | O=C(O)c1ccc(NC(=O)N2C[C@H]3C[C@@H](C2)c2cccc(=O)n2C3)cc1 | -6.02
31 | CCOc1ccccc1NC(=O)c1cccnc1 | 18.1
32 | COc1ccc(CSc2nc(O)cc(=O)n2CC(C)C)cc1F | 5.11
33 | COc1cc(C2C(C#N)=C(C)NC3=C2C(=O)CC(C)(C)C3)cc(OC)c1O (centres unmarked) | 7.3
34 | CC(=O)Nc1cccc(NC(=O)CCNC(=O)c2ccccc2)c1 | 11.2
35 | O=C(NC1CCCc2c1cnn2-c1ccc(F)cc1F)c1ccccc1N1CCOCC1 (centres unmarked) | -38.8
36 | COc1ccc(CNc2nc(-c3cccnc3)nn2C(=O)c2ccco2)cc1 | 3.06
37 | Cc1ccc(NC(=O)c2cc(N3C(=O)CCC3=O)ccc2N2CCOCC2)cc1 | -22.2
38 | CCOC(=O)c1ccc(NC(=O)COc2ccccc2OC)cc1 | 2.1
39 | COc1cccc(NC(=O)NC2(C(F)(F)F)Oc3ccccc3O2)c1 | -3.56
40 | CCOc1ccc(CC2C(=O)NC(=O)N(c3ccc(CC)cc3)C2=O)cc1 (centres unmarked) | 2.16
41 | COc1cccc(/C=C2\SC(=O)N(CC(=O)NC3CCS(=O)(=O)C3)C2=O)c1 (centres unmarked) | -3.81
42 | COc1ccc2c(c1)[nH]c1c(Cl)ncnc12 | 3.14
43 | CCCCc1nc(SCCN2CCOCC2)c2c(=O)n(C)c(=O)n(C)c2n1 | -37.3
44 | CCCC[C@H]1COCCS(=O)(=O)N1Cc1cccc(F)c1 | -22.6

Row | Structure (SMILES) | hERG current change (%, negative = inhibition) at 10uM [%]
45 | Cn1c(=O)oc2cc(S(=O)(=O)Nc3ccc(F)cc3)ccc21 | 15.8
46 | CC1=C(C(=O)OCC2CCCO2)C(c2ccccc2)C2=C(CC(C)(C)CC2=O)N1 (centres unmarked) | 5.9
47 | Cc1oc2c(c1C(=O)N1CCOCC1)C(=O)c1ccccc1C2=O | 5.25
48 | COC(=O)Cn1c(O)c(N=NC(=O)CNC(=O)c2ccc3c(c2)OCCO3)c2ccccc21 | 3.62
49 | CCN(c1ccccc1)S(=O)(=O)c1nnc(NC(=O)CC(C)C)s1 | 2.43
50 | Cc1ccc2oc(=O)c3cnn(CC(=O)N4CCN(c5ccccn5)CC4)c3c2c1 | -27.6
51 | O=S(=O)(c1ccc2nc(N3CCN(c4ccccc4)CC3)ccc2c1)N1CCCCC1 | 19.4
52 | O=C(Nc1ccncc1)Nc1cccc(Cl)c1 | -16.1
53 | COc1ccc(-c2cn(-c3ccc(OC)cc3)c(=S)[nH]2)cc1 | 16.3
54 | Cc1c(Cl)ccc2c(C(=O)Nc3cc(C(C)(C)C)on3)cc(-c3ccccn3)nc12 | 5.13
55 | CSc1nncc(/C(C)=N\Nc2ccccc2)n1 | 9.18
56 | CCCCCN(C(=O)CCC(=O)OC(C)C(=O)NCc1ccccc1)c1c(N)n(CCCC)c(=O)[nH]c1=O (centres unmarked) | -14.5
57 | CCOC(CNC(=O)c1ccc2c(c1)ncn2-c1ccccc1OC)OCC | 2.14
58 | COc1cccc(C(=O)Nc2nc3c(c(=O)[nH]2)CCCC3)c1 | 1.79
59 | CCN1C[C@]2(COC)CC[C@H](O)[C@@]34C5C[C@H]6[C@H](O)C5[C@](O)(C[C@H]6OC)[C@@H]([C@H](OC)C23)[C@@H]14 (some centres unmarked) | 2.57
60 | Cc1c(S(=O)(=O)N2CCN(C(=O)c3ccco3)CC2)c(=O)n(C)c(=O)n1C | 0.0708
61 | COC(=O)CCC(=O)NNC(=O)CCC(=O)Nc1cccc(Cl)c1C | 6.61
62 | CCOC(=O)c1c(-c2ccc(C)o2)csc1NC(=O)CN(C)CC(=O)Nc1ccc(C)cc1 | 8.55
63 | Cc1ccc(N(C(=O)c2ccco2)C(C(=O)NC2CCCC2)c2ccco2)c(C)c1 (centres unmarked) | 10.7
64 | O=C(COc1ccc2ccccc2c1)Nc1cccnc1Cl | 6.3
65 | FC(F)(F)c1cnc(COc2ccc(Cl)cc2Cl)c(Cl)c1 | 18.8
66 | Cc1cc(C)c(NC(=O)c2ccc[n+](Cc3ccc([N+](=O)[O-])cc3)c2)c(C)c1.[Br-] | -1.16

Row | Structure (SMILES) | hERG current change (%, negative = inhibition) at 10uM [%]
67 | COc1nc(Nc2ccc3c(c2)OCO3)nc(OC)n1 | -0.366
68 | CCOC(=O)N1CCN(C(=O)CSc2nnc(CNC(=O)c3ccccc3F)o2)CC1 | 6.37
69 | COC(=O)CCC(=O)OC1(C)C(=O)C=C2C=C3CCCN3C=C2C1=O (centres unmarked) | -21.5
70 | Cc1cccc(C(=O)NCCNC(=O)c2cccnc2)c1 | 18.6
71 | Cn1c(NC(=O)c2ccco2)c(-c2ccccc2)c(=O)c2ccccc21 | 13.6
72 | Cc1ccc(F)c(NC(=S)Nc2cccc3ccccc23)c1 | 19.6
73 | C/C(=N/NC(=O)CNc1ccc(C)cc1)c1ccc(Br)s1 | -4.34
74 | COc1ccccc1N1CCN(C2CCCN(C(=O)c3ccccn3)C2)CC1 (centres unmarked) | -0.115
75 | CCOC(=O)C1(Cc2ccccc2)CCCN(C2CCN(C(C)=O)CC2)C1 (centres unmarked) | 3.82
76 | COc1ccc(NC(=O)C(CC(=O)O)C(C)c2ccccc2)cc1 (centres unmarked) | 11.2
77 | Cc1cccc(N(C)c2ccc3cc(S(=O)(=O)N4CCCC4)ccc3n2)c1 | 17.3
78 | O=C(O)CNS(=O)(=O)c1ccc2c3c(cccc13)C(=O)N2 | 15.6
79 | C/C(=N\NC(=O)Cn1c(-c2ccccn2)nc2ccccc21)c1ccccc1 | -1.69
80 | N/C(=N\OC(=O)c1ccccc1[N+](=O)[O-])c1cccnc1 | -2.9
81 | Cc1ccccc1CN1C[C@@H]2C[C@@H](c3ccc4nsnc4c3)N3CCC[C@@]23C1=O | -18.1
82 | CN(C)Cc1nnnn1-c1cccc(-n2nnnc2CN(C)C)c1 | 12.3
83 | C=C(C)COc1ccc(-c2ncncc2Oc2ccc(OC)cc2)c(O)c1 | -17.3
84 | O=C(Nc1ccc(F)c(Cl)c1)c1nsc(Cl)c1Cl | 10.7
85 | COc1ccc(CNS(=O)(=O)c2ccc(F)c(C(=O)Nc3ccccc3OC)c2)cc1 | 13.9
86 | CNc1c([N+](=O)[O-])ncn1C | 4.95
